Experimental data published in PubChem BioAssay AID488969 (Vanderbilt High Throughput Screening Facility, 2010).
Over roughly 110,000 compounds, “z-score” has its median near -0.1; the highest 2% begin near 2. This is one part of the list. Active and inactive are the calls of the source.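 Rule for the calls: active = z-score in the third read window above 3 or below -3; inactive = the rest.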

The molecules below were run against Metabotropic glutamate receptor 8 (Rattus norvegicus) (UniProt P70579) (assay: mGluR8 Gi/Go-coupled signaling modulation – cell-based, rat, thallium flux, HTS, primary screen (AID 488969)). Settings: HEK293 rat mGluR8, GIRK (G protein-gated inwardly rectifying potassium channel) thallium flux, FluoZin2; at 10 µM; stronger effect = higher value; submaximal glutamate (EC20) added with thallium.
Sequence of UniProt P70579 (P70579 whole entry, looked up): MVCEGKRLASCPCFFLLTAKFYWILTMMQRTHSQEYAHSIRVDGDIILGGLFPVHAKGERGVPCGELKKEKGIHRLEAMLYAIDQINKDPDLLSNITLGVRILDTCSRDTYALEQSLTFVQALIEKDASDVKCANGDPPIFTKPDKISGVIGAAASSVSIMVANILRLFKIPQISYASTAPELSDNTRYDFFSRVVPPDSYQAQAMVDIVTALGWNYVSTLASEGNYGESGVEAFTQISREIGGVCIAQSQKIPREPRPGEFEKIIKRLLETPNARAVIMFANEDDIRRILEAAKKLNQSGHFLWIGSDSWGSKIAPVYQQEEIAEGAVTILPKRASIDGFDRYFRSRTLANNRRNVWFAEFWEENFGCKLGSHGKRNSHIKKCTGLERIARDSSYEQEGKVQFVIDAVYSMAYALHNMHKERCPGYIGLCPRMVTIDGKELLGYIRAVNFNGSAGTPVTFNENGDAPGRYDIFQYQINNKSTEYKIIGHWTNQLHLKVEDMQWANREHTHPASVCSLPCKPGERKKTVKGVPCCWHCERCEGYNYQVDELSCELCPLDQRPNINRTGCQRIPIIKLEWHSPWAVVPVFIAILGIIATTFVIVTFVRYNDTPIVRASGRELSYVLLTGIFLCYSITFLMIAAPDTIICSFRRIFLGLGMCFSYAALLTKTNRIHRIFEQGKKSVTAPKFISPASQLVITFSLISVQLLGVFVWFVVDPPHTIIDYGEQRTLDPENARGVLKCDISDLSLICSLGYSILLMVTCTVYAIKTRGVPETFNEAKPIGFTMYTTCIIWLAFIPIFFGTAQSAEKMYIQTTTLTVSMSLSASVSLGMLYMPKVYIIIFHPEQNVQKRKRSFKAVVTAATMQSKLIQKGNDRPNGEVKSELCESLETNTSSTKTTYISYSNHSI

SMILES | z-score
O=C(Nc1ccc2c(c1)OCCO2)c1cnccn1 | 0.074
Cc1nnc(SCc2cc(=O)oc3cc(O)ccc23)n1Cc1ccccc1 | -0.533
CC(C)COC(=O)N(C)c1ccc(C(O)(C(F)(F)F)C(F)(F)F)cc1 | -0.931
CCn1c(C(O)c2ccc3c(c2)OCO3)nc2ccccc21 (stereo unspecified) | 0.27
CCOc1ccccc1NC(=O)CSc1c(C)n[nH]c1C | -0.144
CC(=O)NC(C)(C)C1CC=C(C)/C(=N\O)C1 (stereo unspecified) | 0.283
O=C(COC(=O)c1cccc2ccccc12)Nc1cccnc1Cl | -0.0151
Cc1ccc(NC(=S)Nc2ccc3cn[nH]c3c2)cc1C | -0.174
O=C(NC1CCCC1)c1cnn2c(C(F)(F)F)cc(-c3ccc4c(c3)OCO4)nc12 | -0.558
O=C(c1ccc(N2CCN(CCO)CC2)nc1)N1CCOCC1 | 0.0375
CC(=O)N(CN1C(=O)c2ccccc2C1=O)c1ccc2c(c1)oc1ccccc12 | -0.224
O=C(NC1CCC(NC(=O)C2CCCO2)CC1)C1CCCO1 (stereo unspecified) | -0.103
CC(=O)/C(=N\Nc1ccccc1)Oc1ccc([N+](=O)[O-])cc1 | 0.876
COc1ccc(-c2noc(-c3cc(Cl)ccc3Cl)n2)cc1OC | active: 3.41
CCOC(=O)c1ccccc1NC(=O)c1cncc(Br)c1 | -0.19
Cc1noc(NS(=O)(=O)c2ccc(NC(=O)C34CC5CC(C3)CC(n3cnc(Br)n3)(C5)C4)cc2)c1C | -0.118
Cc1nn(-c2ccccc2)c2c1C1(C(=O)N3c4c(cccc41)C(C)CC3(C)C)C(C#N)=C(N)O2 (stereo unspecified) | -0.264
Cc1cc(NC(=O)c2cccnc2)ccc1NC(=O)c1ccco1 | -0.766
O=C(O)CSc1ncn[nH]1 | 1.25
CCCSc1nnc(N2C(=O)CC(c3ccsc3)C3=C2CCCC3=O)s1 (stereo unspecified) | -0.694
CN1C(=O)CC(C(=O)O)SC1=Nc1ccc(F)cc1 (stereo unspecified) | -0.345
Cc1ccccc1-c1nnc(SCc2ccccc2)o1 | 0.436
COC(=O)c1ccc2c(=O)[nH]c(CN3c4ccccc4CC3C)nc2c1 (stereo unspecified) | 0.373
COc1ccc(-c2nc3ccc(N4CCCC4)cc3c(=O)[nH]2)cc1OC | -0.908

SMILES | z-score
C/C(=N/NC(=O)c1ccc(Br)o1)c1cccc(NC(=O)c2ccc(C)o2)c1 | 0.0553
Cc1cccc(NC(=S)NNC(=O)c2sccc2C)c1 | 2.13
COc1ccccc1NC(=O)C(C/C=C(\C)Cl)C(C)=O (stereo unspecified) | -0.044
CCN1c2ccccc2-c2nc3ccccc3n2C1c1cccs1 (stereo unspecified) | -0.919
CCOC(=O)CSc1nc2c(c(=O)[nH]c(=O)n2C)n1CCc1ccccc1 | -0.422
CCOC(=O)c1cc(NC(=O)CSCCO)ccc1Cl | -0.351
COc1cc2ccccc2cc1C(=O)Nc1ccc(Cc2ccncc2)cc1 | -0.647
C=CCN1C(=O)CC(C(=O)NC)SC1=Nc1ccc(C(=O)OCC)cc1 (stereo unspecified) | 0.273
CC(C)c1ccc(NC(=O)COc2nnc(-c3cccs3)c(-c3cccs3)n2)cc1 | -0.3
CSC1=N/C(=C\c2ccc3c(c2)OCO3)C(=O)S1 | -0.122
COc1ccc(CN(C(=O)CSc2nnc(-c3ccc(OC)c(OC)c3)o2)c2ccc(F)cc2)cc1 | -0.931
COc1ccc(C2SCC(=O)N2c2c(C)n(C)n(-c3ccccc3)c2=O)cc1OC (stereo unspecified) | 0.108
COc1ccc(-c2noc(-c3ccccc3C(=O)NCc3ccco3)n2)cc1 | -0.286
CCOC(=O)CC1C(=O)NCCN1C(=O)c1ccc(F)cc1F (stereo unspecified) | 0.61
COc1ccc(CC(NC(C)=O)C(=O)N2CCN(C(=O)N(C(C)C)C(C)C)CC2)cc1 (stereo unspecified) | 0.637
CCn1cc([N+](=O)[O-])c(C(=O)Nc2ccc3c(c2)OCCO3)n1 | 0.358
CC(C)COC(=O)Nc1ccccc1C(=O)N1CCOCC1 | 0.0445
Cc1nn(-c2ccccc2)c(C)c1NC(=O)c1ccc(S(=O)(=O)N2CCCC2)cc1 | -0.17
CN(C)c1ccc(N2CN=C3SCC(=O)N3C2)cc1 | 0.00946
CCCN1C(=O)c2ccc(C(=O)NC3=NCCS3)cc2C1=O | -0.106
O=C(COCCOCC(=O)N(c1ccccn1)C1CCCCC1)N(c1ccccn1)C1CCCCC1 | -0.162
COc1ccc(-c2nc3ccccc3c(=O)n2CCOc2cccc(C)c2C)cc1 | 0.0536
CSc1nc(-c2ccco2)nn1C(=O)c1cccs1 | -0.365
COC(=O)C1C(=O)NC(SC)=C(C#N)C1c1ccccc1F (stereo unspecified) | -0.0603

SMILES | z-score
CCCCN(C)C(=O)CS(=O)(=O)Cc1nc(-c2cccc(OC)c2)oc1C | 0.122
Oc1ccc(N2CCN(C(c3cccnc3)c3nnnn3Cc3ccccc3)CC2)cc1 (stereo unspecified) | -0.968
Cc1ccc(OC(=O)c2ccc3snnc3c2)cc1 | 0.0223
O=C(NCc1ccc2c(c1)OCO2)c1cc2ccccc2o1 | -0.522
Cc1ccccc1NC(=O)Cn1nnc2c(cnn2-c2ccc(F)cc2)c1=O | -0.00842
COc1nc(N/N=C/c2ccc(C)cc2)nc(N2CCCCC2)n1 | -0.166
COC(=O)c1ccccc1NC(=O)NC1CCN(Cc2ccccc2)CC1 | 1.06
COc1ccc(/C=C(/NC(=O)c2cccs2)C(=O)N2CCOCC2)cc1OC | -0.39
CCOC(=O)CC1C(=O)NCCN1Cc1cccc(OC)c1 (stereo unspecified) | -0.139
CCc1ccc(Nc2ncccc2C#N)cc1 | -0.0868
Cc1ccc(/C=N/Nc2cccc(C(=O)O)c2)s1 | -1.63
C/C(=C1/SC(N2CC(C)OC(C)C2)=NC1=O)c1ccccc1 (stereo unspecified) | -0.986
COc1cccc(/C=N/NC(=O)Cn2nc(C)c([N+](=O)[O-])c2C)c1O | -0.0586
COc1ccc(NC(=O)c2ccc3c(c2)OCO3)cc1Cl | 0.138
CN1CCN(C(CNS(=O)(=O)c2ccc(F)cc2)c2cccnc2)CC1 (stereo unspecified) | 0.631
COc1cc2c(cc1NC(=O)CSc1nc3ccccc3[nH]1)oc1ccccc12 | -0.238
COC(=O)Cn1cc(/C=N/NC(=O)COc2cccc3cccnc23)c2ccccc21 | -0.566
O=C(CC(Nc1ccc(Cl)cc1)C(=O)O)c1ccccc1 (stereo unspecified) | -0.683
COC(=O)c1ccccc1NC(=O)CN(CCc1ccccc1)S(C)(=O)=O | 0.444
COCCCNC(=O)c1cc(C(=O)c2c(-c3c(Cl)cccc3Cl)noc2C)c[nH]1 | 0.0561
O=C1C2CCCN2C(c2ccccc2)N1c1cccc(Cl)c1 (stereo unspecified) | -0.472
O=C(NN1C(=O)C2C3C=CC(C4CC34)C2C1=O)c1ccc(Cl)cc1 (stereo unspecified) | -0.221
CCOc1cc(NS(=O)(=O)c2ccc(OC)cc2)c(OCC)cc1NC(=O)c1ccco1 | -0.0318
